# The source holds more than one record for some entries. This list holds those alone. The source may hold further records. The values listed for one entry are repeats across runs, samples, wells, individuals or studies. Brackets with × give the number of equal values in this list.
# System: A498 complex spheroids with HUVEC/MSC, growth
# Assay: Anticancer human tumor A498 cell line growth inhibition [AhR];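 also: luminescence signal used as a surrogate for viable cells; seven day exposure starting three days after spheroid seeding; luminescence viability scaled so 100% equals DMSO vehicle wells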
# Conditions: compound alone 3.16 µM; stronger effect = lower value
# Excerpt: Multicellular complex tumor spheroid response to aryl hydrocarbon receptor antagonists in combination with a variety of drugs and investigational agents in selected tumor cell lines
# The current study was undertaken to assess response to aryl hydrocarbon receptor antagonists in combination with standard-of-care drugs and investigational agents in solid tumor complex spheroid models. Complex spheroids include a stromal component modeled by human endothelial cells (HUVEC) and fibroblasts modeled by human mesenchymal stem cells (MSCs). The concentration ranges selected for each drug and investigational agent were based upon clinically achievable concentrations if the clinical Cmax of the agent was known.
# Compounds. […] If the clinical Cmax for an agent had not been determined, the highest concentration tested was 10 microM (Table 1). […]
compound,measurement,value
Cc1cncc(-c2nc(NCCc3c[nH]c4ccccc34)c3ncn(C(C)C)c3n2)c1,"viability, T/C","46.3, 71.6, 60, 67.3 (2×), 55, 57.3, 74.3, 48.3, 51.3, 62.3, 54.3, 58.7, 58.1, 57.4, 65, 34.3, 39.5, 32, 31.2, 82%"

# Reference: PubChem BioAssay AID1919007 (Molecular Pharmacology Branch, DTP, NCI, 2023)
